# According to the supplement of paper PMC11876631:
# ± gives the standard deviation of the averaged measurements. Laboratory Escherichia coli strains with one amino-acid change in an essential protein, pooled on minimal glucose agar with carbenicillin or gentamicin at twice the control MIC (plus kanamycin and chloramphenicol for the plasmids), 48 h. Fold change of barcode share against drug-free plates; higher = less susceptible. Active = above 20 in both replicates (the paper's putatively resistant). '<' = one read or none on drug, '>' = one read or none on a drug-free plate. Shares are relative, so most strains fall below 1 when a few take over. Listed are strains with at least 15 reads on both drug-free plates, and hits; most hits rest on fewer reference reads. Replicate rank correlation about 0.5. Edits are read from barcodes.
# B1: aroE; numbered along this chain (parent)
# chain: METYAVFGNPIAHSKSPFIHQQFAQQLNIEHPYGRVLAPINDFINTLNAFFSAGGKGANVTVPFKEEAFARADELTERAALAGAVNTLMRLEDGRLLGDNTDGVGLLSDLERLSFIRPGLRILLIGAGGASRGVLLPLLSLDCAVTITNRTVSRAEELAKLFAHTGSIQALSMDELEGHEFDLIINATSSGISGDIPAIPSSLIHPGIYCYDMFYQKGKTPFLAWCEQRGSKRNADGLGMLVAQAAHAFLLWHGVLPDVEPVIKQLQEELSA
# B2: ilvC; a variant is named by its letters at X, in order (parent)
# chain: MANYFNTLNLRQQLAQLGKCRFMGRDEFADGASYLQGKKVVIVGCGAQGLNQGLNMRDSGLDISYALRKEAIAEKRASWRKATENGFKVGTYEELIPQADLXINLTPDKQHSDVVRTVQPLMKDGAALGYSHGFNIVEVGEQIRKDITVXXVAPKCPGTEVREEYKRGFGVPTLIAVHPENDPKGEGMAIAKAWAAATGGHRAGVLESSFXAEVKSDLMGEQTIXCGMLQAGSLLCFDKLVEEGTDPAYAEKLIQFGWETITEALKQGGITLXXDRLSNPAKLRAYALSEQLKEIMAPLFQKHMDDIISGEFSSGMMADWANDDKKLLTWREETGKTAFETAPQYEGKIGEQEYFDKGVLMIAMVKAGVELAFETMVDSGIIEESAYYESLHELPLIANTIARKRLYEMNVVISDTAEYGNYLFSYACVPLLKPFMAELQPGDLGKAIPEGAVDNGQLRDVNEAIRSHAIEQVGKKLRGYMTDMKRIAVAG
# Variants of: B1
# Assay: barcode share on antibiotic plates over drug-free plates; higher = less susceptible
# Details: with Escherichia coli (laboratory strain); antibiotic: gentamicin; 2× MIC (MIC 0.45 µg/mL)
# Protocol: (§1)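 A pool of E. coli strains, each edited to carry one amino-acid change in an essential protein, was grown for 48 h on minimal glucose agar with or without antibiotic; strain barcodes were sequenced; mean of two replicates.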
row,Variant,fold change of barcode share
1,F249P,0.0278 ± 0.017
2,F249W,< 0.00925
3,F249D,0.0174 ± 0.0063
4,F249Q,0.0265 ± 0.025
5,F249A,0.013 ± 0.0029
6,V242P,0.0264 ± 0.023
7,V242A,0.0129 ± 0.012
8,I185A,0.0223 ± 0.00041
9,L135Q,< 0.0208
10,L135P,< 0.0226
11,L266A,0.00822 ± 0.0062
12,L266W,< 0.0023
13,L266D,0.00934 ± 0.0066
14,L266Q,0.0193 ± 0.021
15,L266P,< 0.00875
16,L139A,0.00703 ± 0.0024
17,L139P,< 0.00565
18,L139D,< 0.00581
19,L139Q,0.016 ± 0.0037
20,L139W,0.0039 ± 0.00065
21,L107P,0.00982 ± 0.0047
22,L107Q,0.00681 ± 0.0051
23,L107A,0.0062 ± 0.0057
24,L107W,< 0.00218
25,L107D,0.00598 ± 0.0023
26,I122P,0.0314 ± 0.0023

# Same assay, conditions: with Escherichia coli (laboratory strain); antibiotic: carbenicillin; 2× MIC (3.1 µg/mL)
row,Variant,fold change of barcode share
1,F249W,0.993 ± 0.21
2,F249D,0.841 ± 0.3
3,F249Q,1.72 ± 0.58
4,F249A,1.12 ± 0.21
5,V242W,2.89 ± 0.49
6,V242P,1.21 ± 0.46
7,V242D,> 74.8 [active]
8,V242A,0.989 ± 0.056
9,L266A,0.293 ± 0.071
10,L266W,0.27 ± 0.06
11,L266D,0.293 ± 0.11
12,L266Q,0.382 ± 0.41
13,L266P,0.277 ± 0.042
14,L139A,0.916 ± 0.11
15,L139P,0.979 ± 0.39
16,L139D,1.33 ± 0.032
17,L139Q,1.41 ± 0.18
18,L139W,1.47 ± 0.083
19,L107P,0.85 ± 0.34
20,L107Q,1.01 ± 0.13
21,L107A,0.72 ± 0.038
22,L107W,0.648 ± 0.39
23,L107D,0.515 ± 0.24
24,L123A,0.838 ± 0.39
25,I122P,2.03 ± 0.97

# Variants of: B2
# Assay: as above
# Details: with Escherichia coli (laboratory strain); antibiotic: carbenicillin; 2× MIC (3.1 µg/mL)
# Protocol: as §1
row,Variant,fold change of barcode share
1,VVMVLMQ,0.861 ± 0.17
2,VVMVLMW,0.799 ± 0.53
3,VVMVLMD,> 41.4 [active]
4,VVMVLMA,0.693 ± 0.18
5,VPMVLMM,1.1 ± 0.25
6,VVPVLMM,> 38.4 [active]
7,VVAVLMM,1.15 ± 0.84
8,VQMVLMM,0.398 ± 0.12
9,WVMVLMM,0.556 ± 0.17
10,VVMVLPM,0.93 ± 0.066
11,VVWVLMM,28.6 [active]
12,VVMQLMM,1.29 ± 0.061
13,VVMVAMM,0.434 ± 0.1
14,VVMVLWM,> 34.4 [active]
15,VVMALMM,0.995 ± 0.41
16,VVMPLMM,0.936 ± 0.011

row,Variant,fold change of barcode share
1,VVMVQMM,0.888 ± 0.12
2,VVDVLMM,0.928 ± 0.15
3,VVMVLMM I103Q,0.407 ± 0.097
4,VVMVLMM I103P,0.777 ± 0.2
5,VVMVLMM I103A,0.581 ± 0.12
6,VVMVLMM I103W,0.495 ± 0.011
7,VVMDLMM,1.16 ± 0.016
8,VVMVLQM,0.832 ± 0.043
9,VVMVWMM,> 48.3 [active]
10,VVMVDMM,0.713 ± 0.048
11,VVMWLMM,0.933 ± 0.27
12,VVQVLMM,0.813 ± 0.4
13,VVMVPMM,1.11 ± 0.12
14,VVMVLAM,0.649 ± 0.2
15,AVMVLMM,0.544 ± 0.21

# Same assay, conditions: with Escherichia coli (laboratory strain); antibiotic: gentamicin; 2× MIC (MIC 0.45 µg/mL)
row,Variant,fold change of barcode share
1,VVMVLMQ,0.00826 ± 0.0059
2,VVMVLMW,0.0307 ± 0.0023
3,VVMVLMA,0.0148 ± 0.0074
4,VPMVLMM,< 0.00444
5,VVAVLMM,0.015 ± 0.013
6,VQMVLMM,0.0227 ± 0.024
7,WVMVLMM,< 0.0105
8,VVMVLPM,0.0204 ± 0.01
9,VVMQLMM,0.0435 ± 0.05
10,VVMVAMM,0.0129 ± 0.0065
11,VVMALMM,0.0245 ± 0.019
12,VVMPLMM,0.0112 ± 0.0022
13,VVMVQMM,0.0409 ± 0.051
14,VVMVLMM I103Q,0.03119 ± 0.00027
15,VVMVLMM I103P,< 0.00911
16,VVMVLMM I103A,< 0.0112
17,VVMVLMM I103W,0.00896 ± 0.0012
18,VVMDLMM,0.00813 ± 0.0026
19,VVMVLQM,0.00846 ± 0.0027
20,VVMVDMM,0.0163 ± 0.011
21,VVMWLMM,0.192 ± 0.27
22,VVQVLMM,0.0122 ± 0.002
23,VVMVLAM,0.0269 ± 0.024
24,AVMVLMM,< 0.0144
